# Experimental data from patent publication US20210015895A1 (PROCLARA BIOSCIENCES, published 2021).
# Molecular target: T1, Aβ42 fibers (UniProt P05067 fragment)
# T1 construct: domain: Aβ42; Fibrillar aggregate dry-coated on ELISA plates; number of chains in a fiber not defined; also called ABeta; Abeta
# Assay: ELISA on coated Aβ42 fibers; IC50(variant)/IC50(SEQ ID NO:2)
# Protocol: To each well of a 96-well plate (F96 MAXISORP NUNC-IMMUNO PLATE; Catalog number: 442404, Lot 125436 and 128158; Denmark) was added 200 μL of a 1% BSA solution. The plates were sealed and incubated at 7° C. for 3 hr. Plates were then washed with PBS (250 μL/well)×3. We added 50 μL of the diluted Aβ42 fiber solution (1.6 μM) to each well and incubated uncovered at 37° C. overnight to complete dryness. PBS (50 μl/well) is added to control wells (without Aβ42 fibers). Plates were then washed 2× with water and 1× with PBS (250 μL/well for each washing).
# Varying concentrations of each polypeptide (as well as the polypeptide of SEQ ID NO:2) in 50 μL were added to each well, as well as to non-Aβ42 fiber coated wells and incubated for 1 h at 37° C. Plates were then washed 3× with PBS-T (0.05% Tween 20 in PBS) and 3× with PBS (250 μL/well for each washing). We then added 50 μl of HRP-conjugated Goat anti-Human anti Fcγ (Jackson Labs, Catalog number, 109-035-008, Lot number: 106617) diluted 1:2500 (0.32 μg/mL final) in PBS-T+1% Milk (Difco™ Skim Milk, Becton, Dickinson and Company. USA, Catalog number: 232100, Lot number: 7320448) to each well and incubated for 40 min at 37° C. Plates were then washed 6× with PBS-T and 2× with PBS (250 μL/well for each washing). We then added 50 μl/well OPD solution (5 mg/7.5 ml 0.05 M Citrate buffer pH-5.513 μl H₂O₂) and let color to develop for 3-6 min. We next added 25 μl/well of 4N HCl solution to stop reaction. Plates were read for absorbance at 492 nm and 405 nm. The 405 nm absorbance was subtracted from the 492 nm absorbance and the results plotted as a function of polypeptide concentrations. An IC₅₀ for binding for each deimmunized polypeptide was then calculated and compared to the IC₅₀ calculated for the polypeptide of SEQ ID NO:2.
# Sequence of Aβ42 fibers (P05067 672-713 limits assumed): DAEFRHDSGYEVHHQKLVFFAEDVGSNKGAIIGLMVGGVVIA
row,Binder,IC50 relative to SEQ ID NO: 2
1,N1-N2-human IgG Fc fusion protein of SEQ ID NO:2 with D178G (Fc fusion) AETVESCLAKPHTENSFTNVWKDDKTLDRYANYEGCLWNATGVVVCTGDETQCYGTWVPIGLAIPENEGGGSEGGGSEGGGSEGGGTKPPEYGDTPIPGYTYINPLDGTYPPGTEQNPANPNPSLEESQPLNTFMFQNNRFRNRQGALTVYTGTFTQGTDPVKTYYQYTPVSSKAMYGAYWNGKFRDCAFHSGFNEDPFVCEYQGQSSDLPQPPANAGGESGGGSGGGSEGGGSEGGGSEGGGSEGGGSGGGSGSGARS[human IgG1 Fc not printed],0.2 ratio
2,N1-N2-human IgG Fc fusion protein of SEQ ID NO:2 with F141E (Fc fusion) AETVESCLAKPHTENSFTNVWKDDKTLDRYANYEGCLWNATGVVVCTGDETQCYGTWVPIGLAIPENEGGGSEGGGSEGGGSEGGGTKPPEYGDTPIPGYTYINPLDGTYPPGTEQNPANPNPSLEESQPLNTFMFQNNRERNRQGALTVYTGTFTQGTDPVKTYYQYTPVSSKAMYDAYWNGKFRDCAFHSGFNEDPFVCEYQGQSSDLPQPPANAGGESGGGSGGGSEGGGSEGGGSEGGGSEGGGSGGGSGSGARS[human IgG1 Fc not printed],0.2 ratio
3,N1-N2-human IgG Fc fusion protein of SEQ ID NO:2 with M135H (Fc fusion) AETVESCLAKPHTENSFTNVWKDDKTLDRYANYEGCLWNATGVVVCTGDETQCYGTWVPIGLAIPENEGGGSEGGGSEGGGSEGGGTKPPEYGDTPIPGYTYINPLDGTYPPGTEQNPANPNPSLEESQPLNTFHFQNNRFRNRQGALTVYTGTFTQGTDPVKTYYQYTPVSSKAMYDAYWNGKFRDCAFHSGFNEDPFVCEYQGQSSDLPQPPANAGGESGGGSGGGSEGGGSEGGGSEGGGSEGGGSGGGSGSGARS[human IgG1 Fc not printed],0.1 ratio
4,N1-N2-human IgG Fc fusion protein of SEQ ID NO:2 with G48H (Fc fusion) AETVESCLAKPHTENSFTNVWKDDKTLDRYANYEGCLWNATGVVVCTHDETQCYGTWVPIGLAIPENEGGGSEGGGSEGGGSEGGGTKPPEYGDTPIPGYTYINPLDGTYPPGTEQNPANPNPSLEESQPLNTFMFQNNRFRNRQGALTVYTGTFTQGTDPVKTYYQYTPVSSKAMYDAYWNGKFRDCAFHSGFNEDPFVCEYQGQSSDLPQPPANAGGESGGGSGGGSEGGGSEGGGSEGGGSEGGGSGGGSGSGARS[human IgG1 Fc not printed],1.8 ratio
5,N1-N2-human IgG Fc fusion protein of SEQ ID NO:2 with M135D (Fc fusion) AETVESCLAKPHTENSFTNVWKDDKTLDRYANYEGCLWNATGVVVCTGDETQCYGTWVPIGLAIPENEGGGSEGGGSEGGGSEGGGTKPPEYGDTPIPGYTYINPLDGTYPPGTEQNPANPNPSLEESQPLNTFDFQNNRFRNRQGALTVYTGTFTQGTDPVKTYYQYTPVSSKAMYDAYWNGKFRDCAFHSGFNEDPFVCEYQGQSSDLPQPPANAGGESGGGSGGGSEGGGSEGGGSEGGGSEGGGSGGGSGSGARS[human IgG1 Fc not printed],0.5 ratio
6,N1-N2-human IgG Fc fusion protein of SEQ ID NO:2 with G48K (Fc fusion) AETVESCLAKPHTENSFTNVWKDDKTLDRYANYEGCLWNATGVVVCTKDETQCYGTWVPIGLAIPENEGGGSEGGGSEGGGSEGGGTKPPEYGDTPIPGYTYINPLDGTYPPGTEQNPANPNPSLEESQPLNTFMFQNNRFRNRQGALTVYTGTFTQGTDPVKTYYQYTPVSSKAMYDAYWNGKFRDCAFHSGFNEDPFVCEYQGQSSDLPQPPANAGGESGGGSGGGSEGGGSEGGGSEGGGSEGGGSGGGSGSGARS[human IgG1 Fc not printed],1.1 ratio
7,N1-N2-human IgG Fc fusion protein of SEQ ID NO:2 with D178Q (Fc fusion) AETVESCLAKPHTENSFTNVWKDDKTLDRYANYEGCLWNATGVVVCTGDETQCYGTWVPIGLAIPENEGGGSEGGGSEGGGSEGGGTKPPEYGDTPIPGYTYINPLDGTYPPGTEQNPANPNPSLEESQPLNTFMFQNNRFRNRQGALTVYTGTFTQGTDPVKTYYQYTPVSSKAMYQAYWNGKFRDCAFHSGFNEDPFVCEYQGQSSDLPQPPANAGGESGGGSGGGSEGGGSEGGGSEGGGSEGGGSGGGSGSGARS[human IgG1 Fc not printed],0.6 ratio
8,N1-N2-human IgG Fc fusion protein of SEQ ID NO:2 with D178S (Fc fusion) AETVESCLAKPHTENSFTNVWKDDKTLDRYANYEGCLWNATGVVVCTGDETQCYGTWVPIGLAIPENEGGGSEGGGSEGGGSEGGGTKPPEYGDTPIPGYTYINPLDGTYPPGTEQNPANPNPSLEESQPLNTFMFQNNRFRNRQGALTVYTGTFTQGTDPVKTYYQYTPVSSKAMYSAYWNGKFRDCAFHSGFNEDPFVCEYQGQSSDLPQPPANAGGESGGGSGGGSEGGGSEGGGSEGGGSEGGGSGGGSGSGARS[human IgG1 Fc not printed],0.3 ratio
9,N1-N2-human IgG Fc fusion protein of SEQ ID NO:2 with G48R (Fc fusion) AETVESCLAKPHTENSFTNVWKDDKTLDRYANYEGCLWNATGVVVCTRDETQCYGTWVPIGLAIPENEGGGSEGGGSEGGGSEGGGTKPPEYGDTPIPGYTYINPLDGTYPPGTEQNPANPNPSLEESQPLNTFMFQNNRFRNRQGALTVYTGTFTQGTDPVKTYYQYTPVSSKAMYDAYWNGKFRDCAFHSGFNEDPFVCEYQGQSSDLPQPPANAGGESGGGSGGGSEGGGSEGGGSEGGGSEGGGSGGGSGSGARS[human IgG1 Fc not printed],1.9 ratio
10,N1-N2-human IgG Fc fusion protein of SEQ ID NO:2 with G48S (Fc fusion) AETVESCLAKPHTENSFTNVWKDDKTLDRYANYEGCLWNATGVVVCTSDETQCYGTWVPIGLAIPENEGGGSEGGGSEGGGSEGGGTKPPEYGDTPIPGYTYINPLDGTYPPGTEQNPANPNPSLEESQPLNTFMFQNNRFRNRQGALTVYTGTFTQGTDPVKTYYQYTPVSSKAMYDAYWNGKFRDCAFHSGFNEDPFVCEYQGQSSDLPQPPANAGGESGGGSGGGSEGGGSEGGGSEGGGSEGGGSGGGSGSGARS[human IgG1 Fc not printed],1.2 ratio
11,N1-N2-human IgG Fc fusion protein of SEQ ID NO:2 with M135G (Fc fusion) AETVESCLAKPHTENSFTNVWKDDKTLDRYANYEGCLWNATGVVVCTGDETQCYGTWVPIGLAIPENEGGGSEGGGSEGGGSEGGGTKPPEYGDTPIPGYTYINPLDGTYPPGTEQNPANPNPSLEESQPLNTFGFQNNRFRNRQGALTVYTGTFTQGTDPVKTYYQYTPVSSKAMYDAYWNGKFRDCAFHSGFNEDPFVCEYQGQSSDLPQPPANAGGESGGGSGGGSEGGGSEGGGSEGGGSEGGGSGGGSGSGARS[human IgG1 Fc not printed],0.2 ratio
12,N1-N2-human IgG Fc fusion protein of SEQ ID NO:2 with M135A (Fc fusion) AETVESCLAKPHTENSFTNVWKDDKTLDRYANYEGCLWNATGVVVCTGDETQCYGTWVPIGLAIPENEGGGSEGGGSEGGGSEGGGTKPPEYGDTPIPGYTYINPLDGTYPPGTEQNPANPNPSLEESQPLNTFAFQNNRFRNRQGALTVYTGTFTQGTDPVKTYYQYTPVSSKAMYDAYWNGKFRDCAFHSGFNEDPFVCEYQGQSSDLPQPPANAGGESGGGSGGGSEGGGSEGGGSEGGGSEGGGSGGGSGSGARS[human IgG1 Fc not printed],0.4 ratio
13,N1-N2-human IgG Fc fusion protein of SEQ ID NO:2 with D178T (Fc fusion) AETVESCLAKPHTENSFTNVWKDDKTLDRYANYEGCLWNATGVVVCTGDETQCYGTWVPIGLAIPENEGGGSEGGGSEGGGSEGGGTKPPEYGDTPIPGYTYINPLDGTYPPGTEQNPANPNPSLEESQPLNTFMFQNNRFRNRQGALTVYTGTFTQGTDPVKTYYQYTPVSSKAMYTAYWNGKFRDCAFHSGFNEDPFVCEYQGQSSDLPQPPANAGGESGGGSGGGSEGGGSEGGGSEGGGSEGGGSGGGSGSGARS[human IgG1 Fc not printed],0.4 ratio
14,N1-N2-human IgG Fc fusion protein of SEQ ID NO:2 with F141D (Fc fusion) AETVESCLAKPHTENSFTNVWKDDKTLDRYANYEGCLWNATGVVVCTGDETQCYGTWVPIGLAIPENEGGGSEGGGSEGGGSEGGGTKPPEYGDTPIPGYTYINPLDGTYPPGTEQNPANPNPSLEESQPLNTFMFQNNRDRNRQGALTVYTGTFTQGTDPVKTYYQYTPVSSKAMYDAYWNGKFRDCAFHSGFNEDPFVCEYQGQSSDLPQPPANAGGESGGGSGGGSEGGGSEGGGSEGGGSEGGGSGGGSGSGARS[human IgG1 Fc not printed],0.2 ratio
15,N1-N2-human IgG Fc fusion protein of SEQ ID NO:2 with G48T (Fc fusion) AETVESCLAKPHTENSFTNVWKDDKTLDRYANYEGCLWNATGVVVCTTDETQCYGTWVPIGLAIPENEGGGSEGGGSEGGGSEGGGTKPPEYGDTPIPGYTYINPLDGTYPPGTEQNPANPNPSLEESQPLNTFMFQNNRFRNRQGALTVYTGTFTQGTDPVKTYYQYTPVSSKAMYDAYWNGKFRDCAFHSGFNEDPFVCEYQGQSSDLPQPPANAGGESGGGSGGGSEGGGSEGGGSEGGGSEGGGSGGGSGSGARS[human IgG1 Fc not printed],1 ratio
